Here are results for 1 molecule from the supplement of paper PMC8728848.

Holding throughout (assay): glycan array binding signal (z-score within array); higher = stronger binding
What all share (conditions): glycan notation: IUPAC condensed, linker removed

Test [1] deals with Gal(b1-4)GlcNAc(b1-2)Man(a1-3)[Gal(b1-4)GlcNAc(b1-2)Man(a1-6)]Man(b1-4)GlcNAc(b1-4)GlcNAc. The method in brief:
(§1)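 From the Consortium for Functional Glycomics database, 3228 arrays were curated, keeping only those whose protein sequence was available. Binding is given as a within-array Z-score averaged across arrays sharing a protein sequence and across linkers. Negative Z-scores can be read as non-binding.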

In test [2] the target is Gal(b1-4)GlcNAc(b1-2)Man(a1-3)[Gal(b1-4)GlcNAc(b1-2)Man(a1-6)]Man(b1-4)GlcNAc(b1-4)[Fuc(a1-6)]GlcNAc. The method in brief: as §1
The target in test [3] is Gal(b1-4)GlcNAc(b1-2)Man(a1-3)[Gal(b1-4)GlcNAc(b1-2)Man(a1-6)][Gal(b1-4)GlcNAc(b1-4)]Man(b1-4)GlcNAc(b1-4)[Fuc(a1-6)]GlcNAc. In a few lines:
as §1

Test [4] has as its target Gal(b1-4)GlcNAc(b1-2)Man(a1-3)[Gal(b1-4)GlcNAc(b1-2)Man(a1-6)][GlcNAc(b1-4)]Man(b1-4)GlcNAc(b1-4)[Fuc(a1-6)]GlcNAc. In a few lines: as §1
In test [5] the target is Gal(b1-4)GlcNAc(b1-2)Man(a1-3)[GlcNAc(b1-2)Man(a1-6)]Man(b1-4)GlcNAc(b1-4)GlcNAc. In a few lines:
as §1

Test [6] addresses Gal(b1-4)GlcNAc(b1-2)Man(a1-3)[GlcNAc(b1-4)][Gal(b1-4)GlcNAc(b1-2)Man(a1-6)]Man(b1-4)GlcNAc(b1-4)GlcNAc. In a few lines:
as §1

Test [7] has as its target Gal(b1-4)GlcNAc(b1-2)Man(a1-3)[Man(a1-6)]Man(b1-4)GlcNAc(b1-4)GlcNAc. In a few lines:
as §1

Test [8] concerns the target Gal(b1-4)GlcNAc(b1-2)Man(a1-6)Man(b1-4)GlcNAc(b1-4)GlcNAc. The method in brief:
as §1

Test [9] addresses Gal(b1-4)GlcNAc(b1-2)Man(a1-6)[GlcNAc(b1-2)Man(a1-3)]Man(b1-4)GlcNAc(b1-4)GlcNAc. In a few lines:
as §1

In test [10] the target is Gal(b1-4)GlcNAc(b1-2)Man(a1-6)[Man(a1-3)]Man(b1-4)GlcNAc(b1-4)GlcNAc. The method in brief: as §1
Test [11] deals with Gal(b1-4)GlcNAc(b1-2)[Gal(b1-4)GlcNAc(b1-4)]Man(a1-3)[Gal(b1-4)GlcNAc(b1-2)Man(a1-6)]Man(b1-4)GlcNAc(b1-4)GlcNAc. The method in brief:
as §1

The target of test [12] is Gal(b1-4)GlcNAc(b1-2)[Gal(b1-4)GlcNAc(b1-4)]Man(a1-3)[Gal(b1-4)GlcNAc(b1-2)[Gal(b1-4)GlcNAc(b1-6)]Man(a1-6)]Man(b1-4)GlcNAc(b1-4)GlcNAc. In a few lines:
as §1

Test [13] concerns the target Gal(b1-4)GlcNAc(b1-2)[Gal(b1-4)GlcNAc(b1-4)]Man(a1-3)[GlcNAc(b1-4)][Gal(b1-4)GlcNAc(b1-2)Man(a1-6)]Man(b1-4)GlcNAc(b1-4)GlcNAc. The method in brief: as §1
Test [14] deals with Gal(b1-4)GlcNAc(b1-2)[Gal(b1-4)GlcNAc(b1-4)]Man(a1-3)[GlcNAc(b1-4)][Gal(b1-4)GlcNAc(b1-2)[Gal(b1-4)GlcNAc(b1-6)]Man(a1-6)]Man(b1-4)GlcNAc(b1-4)GlcNAc. In a few lines:
as §1

For test [15], the target named is Gal(b1-4)GlcNAc(b1-2)[Gal(b1-4)GlcNAc(b1-6)]Man(a1-6)[Gal(b1-4)GlcNAc(b1-2)Man(a1-3)]Man(b1-4)GlcNAc(b1-4)GlcNAc. In a few lines:
as §1

Test [16] deals with Gal(b1-4)GlcNAc(b1-2)[Gal(b1-4)GlcNAc(b1-6)]Man(a1-6)[Gal(b1-4)GlcNAc(b1-2)Man(a1-3)]Man(b1-4)GlcNAc(b1-4)[Fuc(a1-6)]GlcNAc. The method in brief: as §1
Test [17] addresses Gal(b1-4)GlcNAc(b1-2)[Gal(b1-4)GlcNAc(b1-6)]Man(a1-6)[GlcNAc(b1-4)][Gal(b1-4)GlcNAc(b1-2)Man(a1-3)]Man(b1-4)GlcNAc(b1-4)GlcNAc. In a few lines:
as §1

In test [18] the target is Gal(b1-4)GlcNAc(b1-2)[Gal(b1-4)GlcNAc(b1-6)]Man(a1-6)[GlcNAc(b1-4)][Gal(b1-4)GlcNAc(b1-2)[Gal(b1-4)GlcNAc(b1-4)]Man(a1-3)]Man(b1-4)GlcNAc(b1-4)[Fuc(a1-6)]GlcNAc. The method in brief:
as §1

Test [19] concerns the target Gal(b1-4)GlcNAc(b1-3)Gal(b1-3)GalNAc. In a few lines:
as §1

The other results are listed elsewhere or left out.

B1: Gal-9-hFc (Mus musculus), O08573-2 (protein)
chain: MALFSAQSPYINPIIPFTGPIQGGLQEGLQVTLQGTTKSFAQRFVVNFQNSFNGNDIAFHFNPRFEEGGYVVCNTKQNGQWGPEERKMQMPFQKGMPFELCFLVQRSEFKVMVNKKFFVQYQHRVPYHLVDTIAVSGCLKLSFITFQTQNFRPAHQAPMAQTTIHMVHSTPGQMFSTPGIPPVVYPTPAYTIPFYTPIPNGLYPSKSIMISGNVLPDATRFHINLRCGGDIAFHLNPRFNENAVVRNTQINNSWGQEERSLLGRMPFSRGQSFSVWIICEGHCFKVAVNGQHMCEYYHRLKNLQDINTLEVAGDIQLTHVQT
For B1, the “glycan array binding signal (z-score)” value in test [1] is -0.481; in [2] it was -0.363; in test [3], -0.527; in test [4], -0.619; in test [5] it was -0.569; in [6] it was -0.373. Also, the “glycan array binding signal (z-score)” value in [7] was 1.45; in test [8], -0.363; in test [9], -0.396; in test [10], -0.279; in test [11], -0.075; in [12], -0.541. Besides, the “glycan array binding signal (z-score)” value in test [13] was -0.401; in test [14], -0.266; in [15], -0.185; in [16] it was -0.447; in test [17], -0.355; in test [18], -0.49. Further, the “glycan array binding signal (z-score)” value in test [19] was -0.39.
